For experiment [1], the target named is T1, MTG16 (doxycycline-induced in Raji/MTG16 Tet-On 3G cells) (UniProt O75081).
T1 sequence: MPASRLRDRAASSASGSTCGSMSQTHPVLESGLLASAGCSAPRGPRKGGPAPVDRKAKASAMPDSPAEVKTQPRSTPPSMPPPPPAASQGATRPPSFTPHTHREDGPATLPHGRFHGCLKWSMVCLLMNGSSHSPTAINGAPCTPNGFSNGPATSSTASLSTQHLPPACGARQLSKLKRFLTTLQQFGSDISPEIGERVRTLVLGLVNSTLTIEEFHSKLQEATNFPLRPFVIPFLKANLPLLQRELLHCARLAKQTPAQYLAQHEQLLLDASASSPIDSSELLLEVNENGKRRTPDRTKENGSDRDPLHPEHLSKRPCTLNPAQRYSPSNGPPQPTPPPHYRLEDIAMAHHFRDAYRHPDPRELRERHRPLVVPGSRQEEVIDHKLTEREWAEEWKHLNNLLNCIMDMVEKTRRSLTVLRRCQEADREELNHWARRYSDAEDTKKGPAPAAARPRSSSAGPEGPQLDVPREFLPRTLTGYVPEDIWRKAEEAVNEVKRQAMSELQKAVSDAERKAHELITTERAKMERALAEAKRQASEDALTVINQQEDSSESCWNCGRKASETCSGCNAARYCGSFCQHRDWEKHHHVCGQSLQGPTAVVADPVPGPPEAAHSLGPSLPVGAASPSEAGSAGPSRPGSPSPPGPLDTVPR
Put plainly: co-IP; Raji-MTG16 cells induced 12 h with 20 ng/ml doxycycline under 4% O2; IP with α-MTG or α-HIF1α and Protein A Sepharose; Western blotting. (In general: Immunoblotting shows a protein as a band on a membrane.)

By UniProt entry, the sequences of proteins in these tests, tags left out.
UniProt Q16665: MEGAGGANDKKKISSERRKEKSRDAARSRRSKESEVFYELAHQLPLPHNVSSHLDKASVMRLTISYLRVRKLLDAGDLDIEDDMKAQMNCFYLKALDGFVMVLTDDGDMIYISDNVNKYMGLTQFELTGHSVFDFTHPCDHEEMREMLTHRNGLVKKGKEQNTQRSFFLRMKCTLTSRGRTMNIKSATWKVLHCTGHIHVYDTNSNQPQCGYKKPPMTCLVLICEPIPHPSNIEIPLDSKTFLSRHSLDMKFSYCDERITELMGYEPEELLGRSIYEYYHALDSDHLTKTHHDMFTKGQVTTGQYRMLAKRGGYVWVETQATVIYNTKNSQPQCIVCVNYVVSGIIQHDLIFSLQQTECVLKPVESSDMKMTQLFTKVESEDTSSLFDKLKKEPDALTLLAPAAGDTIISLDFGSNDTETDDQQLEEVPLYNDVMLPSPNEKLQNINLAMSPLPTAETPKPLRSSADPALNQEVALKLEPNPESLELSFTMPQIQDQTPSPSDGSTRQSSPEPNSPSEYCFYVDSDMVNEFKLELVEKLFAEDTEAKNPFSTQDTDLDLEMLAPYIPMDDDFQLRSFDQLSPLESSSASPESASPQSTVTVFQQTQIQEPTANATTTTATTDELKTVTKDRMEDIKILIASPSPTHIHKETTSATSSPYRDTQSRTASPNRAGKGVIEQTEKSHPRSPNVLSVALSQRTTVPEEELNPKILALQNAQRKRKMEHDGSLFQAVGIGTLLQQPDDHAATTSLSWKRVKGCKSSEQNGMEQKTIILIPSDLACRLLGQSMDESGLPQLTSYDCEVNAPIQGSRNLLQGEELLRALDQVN
UniProt Q9GZT9: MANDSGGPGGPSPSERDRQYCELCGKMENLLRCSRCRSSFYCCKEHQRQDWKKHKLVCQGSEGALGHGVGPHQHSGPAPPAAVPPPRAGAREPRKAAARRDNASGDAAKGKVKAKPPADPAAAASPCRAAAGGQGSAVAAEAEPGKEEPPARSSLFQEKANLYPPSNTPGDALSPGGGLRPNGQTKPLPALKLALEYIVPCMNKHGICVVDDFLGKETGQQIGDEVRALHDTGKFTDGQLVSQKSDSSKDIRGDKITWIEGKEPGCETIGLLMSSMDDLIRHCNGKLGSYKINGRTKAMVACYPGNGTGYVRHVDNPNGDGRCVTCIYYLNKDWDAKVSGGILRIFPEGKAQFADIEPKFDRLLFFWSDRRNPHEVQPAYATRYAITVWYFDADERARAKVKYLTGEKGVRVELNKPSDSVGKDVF

For a further experiment, the target named is T2, GST-MTG16 (UniProt O75081).
T2 sequence: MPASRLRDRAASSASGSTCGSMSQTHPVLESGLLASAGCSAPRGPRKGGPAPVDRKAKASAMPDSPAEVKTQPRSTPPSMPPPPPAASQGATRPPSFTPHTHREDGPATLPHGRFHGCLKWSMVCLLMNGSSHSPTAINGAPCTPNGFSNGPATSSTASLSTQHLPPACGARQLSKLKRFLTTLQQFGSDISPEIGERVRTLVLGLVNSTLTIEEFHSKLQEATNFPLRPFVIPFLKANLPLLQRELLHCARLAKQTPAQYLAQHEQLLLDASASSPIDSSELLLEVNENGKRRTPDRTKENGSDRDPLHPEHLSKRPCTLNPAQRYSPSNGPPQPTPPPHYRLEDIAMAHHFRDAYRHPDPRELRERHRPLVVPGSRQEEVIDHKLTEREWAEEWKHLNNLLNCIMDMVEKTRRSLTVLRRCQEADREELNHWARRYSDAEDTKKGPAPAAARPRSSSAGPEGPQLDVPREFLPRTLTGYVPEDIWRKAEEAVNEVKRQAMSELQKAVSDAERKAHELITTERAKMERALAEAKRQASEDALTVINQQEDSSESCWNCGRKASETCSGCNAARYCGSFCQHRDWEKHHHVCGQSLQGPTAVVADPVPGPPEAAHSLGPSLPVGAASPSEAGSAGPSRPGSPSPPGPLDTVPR
Put plainly: pull-down; GST or GST fusion protein on glutathione-Sepharose beads, incubated overnight at 4°C with whole cell lysate of transfected COS-7 cells; NTN buffer (100 mM NaCl, 20 mM Tris, 0.1% NP-40) with 1.0 mM EDTA; Western blotting; only the target purified.

Another experiment addresses T3, MTG16 (full length) (UniProt O75081).
T3 sequence: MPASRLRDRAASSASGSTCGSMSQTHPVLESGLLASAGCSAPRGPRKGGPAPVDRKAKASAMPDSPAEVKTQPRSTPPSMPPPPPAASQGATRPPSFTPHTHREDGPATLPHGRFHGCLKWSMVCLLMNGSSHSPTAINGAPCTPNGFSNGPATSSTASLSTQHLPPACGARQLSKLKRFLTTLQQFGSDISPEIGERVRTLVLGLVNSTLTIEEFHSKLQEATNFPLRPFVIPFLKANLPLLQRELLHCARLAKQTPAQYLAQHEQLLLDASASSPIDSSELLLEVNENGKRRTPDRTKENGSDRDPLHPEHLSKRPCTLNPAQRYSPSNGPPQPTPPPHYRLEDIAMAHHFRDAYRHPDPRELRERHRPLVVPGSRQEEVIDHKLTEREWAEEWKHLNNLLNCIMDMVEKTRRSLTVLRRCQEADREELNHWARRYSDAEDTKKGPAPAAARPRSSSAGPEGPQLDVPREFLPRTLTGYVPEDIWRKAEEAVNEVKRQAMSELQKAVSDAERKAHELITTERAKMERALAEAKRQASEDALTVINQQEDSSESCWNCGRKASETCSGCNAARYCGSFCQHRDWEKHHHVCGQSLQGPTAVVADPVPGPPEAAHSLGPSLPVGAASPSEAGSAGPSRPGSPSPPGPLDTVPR
Put plainly: co-IP; COS-7 cells transfected with MTG16 and HIF1α, harvested after 24 h; IP with α-MTG or α-HIF1α and Protein A Sepharose, lysis buffer with 250 mM NaCl, 0.1% NP-40; Western blotting.

The next experiment concerns the target GST-HIF1α (UniProt Q16665). Put plainly: pull-down; GST or GST fusion protein on glutathione-Sepharose beads, incubated overnight at 4°C with whole cell lysate of transfected COS-7 cells; NTN buffer (100 mM NaCl, 20 mM Tris, 0.1% NP-40) with 1.0 mM EDTA; Western blotting; only the target purified.
For the next experiment, the target named is HIF1α (full length) (UniProt Q16665). Put plainly: co-IP; COS-7 cells transfected with MTG16 and HIF1α, harvested after 24 h; IP with α-MTG or α-HIF1α and Protein A Sepharose, lysis buffer with 250 mM NaCl, 0.1% NP-40; Western blotting.
The target in the next experiment is HA-HIF1α (UniProt Q16665). Put plainly: co-IP; Raji-MTG16 cells co-transfected with HA-HIF1α and FLAG-ubiquitin, 4% O2, with 20 ng/ml doxycycline; IP with anti-HA antibody; Western blotting.
Experiment [2] deals with HIF1α (in Raji-MTG16 cells at 4% O2) (human (endogenous in Raji)) (UniProt Q16665). Put plainly: co-IP; Raji-MTG16 cells induced 12 h with 20 ng/ml doxycycline under 4% O2; IP with α-MTG or α-HIF1α and Protein A Sepharose; Western blotting.

No constants are given. Whether binding was seen depends on the method and setting. In cells and extracts the contact can be indirect. Some results given as binding are weak or reduced against the parent protein; the word gives no strength. For part of these data: Where a sequence is shown, tags or fusion partners need not be part of it.

With “prolyl hydroxylase domain-containing protein 2 (PHD2) (from UniProt Q9GZT9 1-426) (enzyme)”, the binding entry in experiment [1] is “binds”.
Still for that read-out and setting: then “HIF1α (in Raji-MTG16 cells at 4% O2) (from UniProt Q16665 1-826)”, with “binds”.
“HIF1α (full length) (from UniProt Q16665 1-826)”: the binding entry with GST-MTG16 and with MTG16 (full length) was “binds” each time.

B1: MTG16 (full length) (protein, UniProt O75081 1-653)
chain: MPASRLRDRAASSASGSTCGSMSQTHPVLESGLLASAGCSAPRGPRKGGPAPVDRKAKASAMPDSPAEVKTQPRSTPPSMPPPPPAASQGATRPPSFTPHTHREDGPATLPHGRFHGCLKWSMVCLLMNGSSHSPTAINGAPCTPNGFSNGPATSSTASLSTQHLPPACGARQLSKLKRFLTTLQQFGSDISPEIGERVRTLVLGLVNSTLTIEEFHSKLQEATNFPLRPFVIPFLKANLPLLQRELLHCARLAKQTPAQYLAQHEQLLLDASASSPIDSSELLLEVNENGKRRTPDRTKENGSDRDPLHPEHLSKRPCTLNPAQRYSPSNGPPQPTPPPHYRLEDIAMAHHFRDAYRHPDPRELRERHRPLVVPGSRQEEVIDHKLTEREWAEEWKHLNNLLNCIMDMVEKTRRSLTVLRRCQEADREELNHWARRYSDAEDTKKGPAPAAARPRSSSAGPEGPQLDVPREFLPRTLTGYVPEDIWRKAEEAVNEVKRQAMSELQKAVSDAERKAHELITTERAKMERALAEAKRQASEDALTVINQQEDSSESCWNCGRKASETCSGCNAARYCGSFCQHRDWEKHHHVCGQSLQGPTAVVADPVPGPPEAAHSLGPSLPVGAASPSEAGSAGPSRPGSPSPPGPLDTVPR
On to B1, for which the binding result with GST-HIF1α and in the experiment with HIF1α (full length) was “binds” in each case.

B2: MTG16 (doxycycline-induced in Raji/MTG16 Tet-On 3G cells) (protein, UniProt O75081 1-653)
chain: MPASRLRDRAASSASGSTCGSMSQTHPVLESGLLASAGCSAPRGPRKGGPAPVDRKAKASAMPDSPAEVKTQPRSTPPSMPPPPPAASQGATRPPSFTPHTHREDGPATLPHGRFHGCLKWSMVCLLMNGSSHSPTAINGAPCTPNGFSNGPATSSTASLSTQHLPPACGARQLSKLKRFLTTLQQFGSDISPEIGERVRTLVLGLVNSTLTIEEFHSKLQEATNFPLRPFVIPFLKANLPLLQRELLHCARLAKQTPAQYLAQHEQLLLDASASSPIDSSELLLEVNENGKRRTPDRTKENGSDRDPLHPEHLSKRPCTLNPAQRYSPSNGPPQPTPPPHYRLEDIAMAHHFRDAYRHPDPRELRERHRPLVVPGSRQEEVIDHKLTEREWAEEWKHLNNLLNCIMDMVEKTRRSLTVLRRCQEADREELNHWARRYSDAEDTKKGPAPAAARPRSSSAGPEGPQLDVPREFLPRTLTGYVPEDIWRKAEEAVNEVKRQAMSELQKAVSDAERKAHELITTERAKMERALAEAKRQASEDALTVINQQEDSSESCWNCGRKASETCSGCNAARYCGSFCQHRDWEKHHHVCGQSLQGPTAVVADPVPGPPEAAHSLGPSLPVGAASPSEAGSAGPSRPGSPSPPGPLDTVPR
Take B2: the binding result (in the experiment with HA-HIF1α; in experiment [2]) was “binds” in each case.

B3: MTG16 residues 1–405 (domain or fragment, UniProt O75081 1-405)
chain: MPASRLRDRAASSASGSTCGSMSQTHPVLESGLLASAGCSAPRGPRKGGPAPVDRKAKASAMPDSPAEVKTQPRSTPPSMPPPPPAASQGATRPPSFTPHTHREDGPATLPHGRFHGCLKWSMVCLLMNGSSHSPTAINGAPCTPNGFSNGPATSSTASLSTQHLPPACGARQLSKLKRFLTTLQQFGSDISPEIGERVRTLVLGLVNSTLTIEEFHSKLQEATNFPLRPFVIPFLKANLPLLQRELLHCARLAKQTPAQYLAQHEQLLLDASASSPIDSSELLLEVNENGKRRTPDRTKENGSDRDPLHPEHLSKRPCTLNPAQRYSPSNGPPQPTPPPHYRLEDIAMAHHFRDAYRHPDPRELRERHRPLVVPGSRQEEVIDHKLTEREWAEEWKHLNNLLNC
Take B3: in the experiment with GST-HIF1α, the binding entry is “binds”.

B4: MTG16 residues 1–354 (domain or fragment, UniProt O75081 1-354)
chain: MPASRLRDRAASSASGSTCGSMSQTHPVLESGLLASAGCSAPRGPRKGGPAPVDRKAKASAMPDSPAEVKTQPRSTPPSMPPPPPAASQGATRPPSFTPHTHREDGPATLPHGRFHGCLKWSMVCLLMNGSSHSPTAINGAPCTPNGFSNGPATSSTASLSTQHLPPACGARQLSKLKRFLTTLQQFGSDISPEIGERVRTLVLGLVNSTLTIEEFHSKLQEATNFPLRPFVIPFLKANLPLLQRELLHCARLAKQTPAQYLAQHEQLLLDASASSPIDSSELLLEVNENGKRRTPDRTKENGSDRDPLHPEHLSKRPCTLNPAQRYSPSNGPPQPTPPPHYRLEDIAMAHHFR
For B4, the binding result with GST-HIF1α was “binds”.

B5: MTG16 residues 1–290 (domain or fragment, UniProt O75081 1-290)
chain: MPASRLRDRAASSASGSTCGSMSQTHPVLESGLLASAGCSAPRGPRKGGPAPVDRKAKASAMPDSPAEVKTQPRSTPPSMPPPPPAASQGATRPPSFTPHTHREDGPATLPHGRFHGCLKWSMVCLLMNGSSHSPTAINGAPCTPNGFSNGPATSSTASLSTQHLPPACGARQLSKLKRFLTTLQQFGSDISPEIGERVRTLVLGLVNSTLTIEEFHSKLQEATNFPLRPFVIPFLKANLPLLQRELLHCARLAKQTPAQYLAQHEQLLLDASASSPIDSSELLLEVNEN
In the case of B5, in the experiment with GST-HIF1α, the binding result is reported as “binds”.

B6: MTG16 residues 290 to 653 (domain or fragment, UniProt O75081 290-653)
chain: NGKRRTPDRTKENGSDRDPLHPEHLSKRPCTLNPAQRYSPSNGPPQPTPPPHYRLEDIAMAHHFRDAYRHPDPRELRERHRPLVVPGSRQEEVIDHKLTEREWAEEWKHLNNLLNCIMDMVEKTRRSLTVLRRCQEADREELNHWARRYSDAEDTKKGPAPAAARPRSSSAGPEGPQLDVPREFLPRTLTGYVPEDIWRKAEEAVNEVKRQAMSELQKAVSDAERKAHELITTERAKMERALAEAKRQASEDALTVINQQEDSSESCWNCGRKASETCSGCNAARYCGSFCQHRDWEKHHHVCGQSLQGPTAVVADPVPGPPEAAHSLGPSLPVGAASPSEAGSAGPSRPGSPSPPGPLDTVPR
B6: the binding entry with GST-HIF1α is given as “no binding”.

The values are drawn from publication PMC4431712.
